{"source": "the supplement of paper PMC3334620", "note": "The full ranking holds about 33,000 sequences; the median of “E-score (-0.5 to 0.5)” is about -0.012, and the highest 2% start at about 0.27. This is one part of the list.", "data": [{"biological_target": "T1, Vhr1 (UniProt P40522)", "T1 sequence": "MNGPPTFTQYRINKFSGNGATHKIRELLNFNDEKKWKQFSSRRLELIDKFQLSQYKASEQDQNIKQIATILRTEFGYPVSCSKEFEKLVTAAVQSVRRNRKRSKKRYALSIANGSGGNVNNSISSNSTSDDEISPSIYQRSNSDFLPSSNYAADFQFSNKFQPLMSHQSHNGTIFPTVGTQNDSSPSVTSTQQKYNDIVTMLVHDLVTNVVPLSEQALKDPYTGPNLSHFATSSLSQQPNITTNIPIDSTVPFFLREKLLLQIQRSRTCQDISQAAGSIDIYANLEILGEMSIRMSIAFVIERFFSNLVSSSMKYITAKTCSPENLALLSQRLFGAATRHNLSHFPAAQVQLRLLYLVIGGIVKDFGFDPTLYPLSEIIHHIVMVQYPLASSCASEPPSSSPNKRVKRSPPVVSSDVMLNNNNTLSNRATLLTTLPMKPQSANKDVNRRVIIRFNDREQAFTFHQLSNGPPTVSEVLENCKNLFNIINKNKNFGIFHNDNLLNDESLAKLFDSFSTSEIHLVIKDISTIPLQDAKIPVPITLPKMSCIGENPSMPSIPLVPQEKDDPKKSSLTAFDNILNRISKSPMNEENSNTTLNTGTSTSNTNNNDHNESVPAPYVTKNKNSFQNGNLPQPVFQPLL", "assay": "PBM E-score (8-mer binding enrichment) (E-score (-0.5 to 0.5)); higher = stronger / more preferred TF binding; most listed sequences are background and not binding sites", "conditions": "protein concentration: 200 nM; construct: GST-full length", "how_it_was_run": "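Masliner-normalised scans of fluorescent anti-GST signal were the basis for scoring. That signal came from GST-tagged yeast transcription factors applied at about 100-200 nM to double-stranded universal all-10-mer Agilent arrays on fresh or once-stripped slides. Each ungapped eight-base word, pooled with its reverse complement, received an E-score from the Universal PBM Analysis Suite.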", "values": [{"sequence": "ACGTAAAT", "PBM E-score": -0.168}, {"sequence": "GCGAACCC", "PBM E-score": 0.124}, {"sequence": "AGAAAACT", "PBM E-score": -0.114}, {"sequence": "CCATGTCC", "PBM E-score": -0.0534}, {"sequence": "CTGGGTCC", "PBM E-score": -0.143}, {"sequence": "AATGTCGT", "PBM E-score": -0.0667}, {"sequence": "GGCCGCAA", "PBM E-score": -0.0783}, {"sequence": "CGAACGTA", "PBM E-score": -0.0982}, {"sequence": "GTAGCTAC", "PBM E-score": 0.0711}, {"sequence": "CCGCCTAG", "PBM E-score": 0.059}, {"sequence": "AATGGTCC", "PBM E-score": 0.0646}, {"sequence": "AGCAGTAG", "PBM E-score": -0.18}, {"sequence": "AAGCGCAA", "PBM E-score": -0.133}, {"sequence": "AGACCAGA", "PBM E-score": 0.035}, {"sequence": "GATCCGCC", "PBM E-score": 0.102}, {"sequence": "ACTGTGGA", "PBM E-score": 0.124}, {"sequence": "AGGGAGGA", "PBM E-score": -0.25}, {"sequence": "ATTCCCTG", "PBM E-score": 0.0764}, {"sequence": "CGCCTGAC", "PBM E-score": 0.103}, {"sequence": "GTCGAGCA", "PBM E-score": -0.0945}, {"sequence": "AGACGACT", "PBM E-score": 0.0884}, {"sequence": "GGATATCC", "PBM E-score": 0.0435}, {"sequence": "GAATATCC", "PBM E-score": -0.189}, {"sequence": "ATTGCTAA", "PBM E-score": -0.0369}, {"sequence": "CACATTAG", "PBM E-score": -0.0421}, {"sequence": "CGGAACTA", "PBM E-score": 0.0982}, {"sequence": "CGGTGGAA", "PBM E-score": -0.0952}, {"sequence": "GAAGATAA", "PBM E-score": -0.0175}, {"sequence": "CAAGTCAG", "PBM E-score": 0.208}, {"sequence": "AACTTAAG", "PBM E-score": -0.163}, {"sequence": "AGGGAAAG", "PBM E-score": -0.212}, {"sequence": "ACGCAACT", "PBM E-score": -0.0458}, {"sequence": "CTTGGATC", "PBM E-score": 0.0792}, {"sequence": "ATCTGCGA", "PBM E-score": 0.121}, {"sequence": "CCCGATCG", "PBM E-score": 0.0213}, {"sequence": "ATGGAGTC", "PBM E-score": 0.433}, {"sequence": "GAACTGCC", "PBM E-score": -0.0452}, {"sequence": "GACCGATA", "PBM E-score": -0.0142}, {"sequence": "CTGCGAAA", "PBM E-score": -0.176}, {"sequence": "CGATCACC", "PBM E-score": 0.147}, {"sequence": "ACGACTCT", "PBM E-score": 0.261}, {"sequence": "AGCTGACT", "PBM E-score": 0.413}, {"sequence": "CTGTAGTA", "PBM E-score": 0.262}, {"sequence": "AGCACTAG", "PBM E-score": -0.105}, {"sequence": "GTTCATCA", "PBM E-score": 0.15}, {"sequence": "CTGATATA", "PBM E-score": -0.062}, {"sequence": "GCAGATAC", "PBM E-score": -0.0735}, {"sequence": "CCGGCGTA", "PBM E-score": 0.174}, {"sequence": "GATTTTTA", "PBM E-score": 0.0137}, {"sequence": "CCTTCGAG", "PBM E-score": -0.288}, {"sequence": "AACGTGCA", "PBM E-score": -0.228}, {"sequence": "GATAGCCC", "PBM E-score": -0.22}, {"sequence": "CATCTGGA", "PBM E-score": 0.0944}, {"sequence": "CTGTATCA", "PBM E-score": -0.0153}, {"sequence": "GAAGAATC", "PBM E-score": -0.1}, {"sequence": "CACTCTGA", "PBM E-score": 0.00421}, {"sequence": "CAGTTCGA", "PBM E-score": 0.00768}, {"sequence": "ATTGTTGG", "PBM E-score": 0.169}, {"sequence": "AGTGGGAA", "PBM E-score": 0.056}, {"sequence": "CGATACCA", "PBM E-score": 0.138}, {"sequence": "ACATTCTA", "PBM E-score": -0.0337}, {"sequence": "AACCGTGC", "PBM E-score": 0.0306}, {"sequence": "CCAATAGA", "PBM E-score": -0.0524}, {"sequence": "CGGTAGCC", "PBM E-score": 0.223}, {"sequence": "CTGACTAA", "PBM E-score": 0.359}, {"sequence": "GGGTATAA", "PBM E-score": -0.0128}, {"sequence": "GACTACCA", "PBM E-score": 0.306}, {"sequence": "CCGGGTAA", "PBM E-score": 0.0829}, {"sequence": "GAGGCTGC", "PBM E-score": 0.00037}, {"sequence": "CGAGCCCC", "PBM E-score": -0.0595}, {"sequence": "ACCGCCGA", "PBM E-score": 0.0789}, {"sequence": "CTTACAAA", "PBM E-score": -0.00387}, {"sequence": "CATCTTCG", "PBM E-score": -0.0538}, {"sequence": "GTCACTGA", "PBM E-score": 0.0573}, {"sequence": "ATTCTGAG", "PBM E-score": -0.096}, {"sequence": "TATTGTCA", "PBM E-score": 0.0335}, {"sequence": "ATTTCACA", "PBM E-score": 0.0774}, {"sequence": "ACATGCCT", "PBM E-score": 0.14}, {"sequence": "GGCAACAA", "PBM E-score": 0.144}, {"sequence": "AGAGATTC", "PBM E-score": 0.0168}, {"sequence": "AATTCCGA", "PBM E-score": -0.181}, {"sequence": "AGATCTGG", "PBM E-score": -0.165}, {"sequence": "GACAATGC", "PBM E-score": -0.162}, {"sequence": "GAGATCCA", "PBM E-score": 0.002}, {"sequence": "CGCGATCC", "PBM E-score": 0.0866}, {"sequence": "ACACGAAA", "PBM E-score": 0.0417}, {"sequence": "GTCAATTA", "PBM E-score": -0.166}, {"sequence": "ACGGTGCG", "PBM E-score": 0.136}, {"sequence": "TAGTTATA", "PBM E-score": 0.00574}, {"sequence": "AGTAGCAA", "PBM E-score": -0.108}, {"sequence": "CAAAACCC", "PBM E-score": 0.0268}, {"sequence": "CGCGCCAC", "PBM E-score": 0.109}, {"sequence": "AGACCCAA", "PBM E-score": -0.0169}, {"sequence": "CCAGCGTC", "PBM E-score": 0.0588}, {"sequence": "CACTCATC", "PBM E-score": 0.137}, {"sequence": "AGCAGCGC", "PBM E-score": -0.0886}, {"sequence": "GGTGAGTA", "PBM E-score": 0.282}, {"sequence": "AAACAAGA", "PBM E-score": 0.121}, {"sequence": "AGGACTTC", "PBM E-score": -0.126}, {"sequence": "GTGGAAAA", "PBM E-score": -0.21}, {"sequence": "GTGCGAAA", "PBM E-score": -0.0809}, {"sequence": "AGACCACG", "PBM E-score": -0.155}, {"sequence": "CTCTACCC", "PBM E-score": 0.116}, {"sequence": "ACGGGGCC", "PBM E-score": -0.0737}, {"sequence": "CTTTAAGC", "PBM E-score": -0.0514}, {"sequence": "CTCGATCC", "PBM E-score": 0.0979}, {"sequence": "CGACCAAC", "PBM E-score": -0.0668}, {"sequence": "AATACTAG", "PBM E-score": 0.151}, {"sequence": "AAGATCTC", "PBM E-score": -0.0464}]}]}
